# Measured values published in PubChem BioAssay AID1768 (National Center for Advancing Translational Sciences (NCATS), 2009).
# Among all 270,000 compounds or so, about 620 (0.23%) were called active. Inconclusive means that the source gave no clear call. Such entries were picked first, then a sample of the others. Calls follow the shape of the dose curve; as a rule, active = well fitted inhibition curve with a large enough effect in the polarisation, with a control signal flat (not every such curve was filed as active); inconclusive = small, poorly fitted or top-dose-only effect, or effect the other way, or a change in a side signal; inactive = no such curve, though single readings can be large or run the other way; the % refers to the polarisation. Potencies of inconclusive entries are doubtful fits and often do not repeat. A note “side channel” means that the fit belongs to a control or component signal, not to the main read-out.
# Molecular target: Menin (Homo sapiens) (UniProt O00255)
# Experiment: qHTS Assay for Inhibitors Targeting the Menin-MLL Interaction in MLL Related Leukemias: Competition With Texas Red Labeled MLL-derived Mutant Peptide; as to FP activity change, negative = inhibition: % of control where 0% means no effect
# Conditions: fluorescence polarization; FP activity change, negative = inhibition: at 61.6 µM (top of the series)
# Potency is read from the fitted curve at half-maximal effect; tags tell the direction and shape of the fitted curve or compound fluorescence and quenching.
# Chain of UniProt O00255 (O00255 whole entry, looked up): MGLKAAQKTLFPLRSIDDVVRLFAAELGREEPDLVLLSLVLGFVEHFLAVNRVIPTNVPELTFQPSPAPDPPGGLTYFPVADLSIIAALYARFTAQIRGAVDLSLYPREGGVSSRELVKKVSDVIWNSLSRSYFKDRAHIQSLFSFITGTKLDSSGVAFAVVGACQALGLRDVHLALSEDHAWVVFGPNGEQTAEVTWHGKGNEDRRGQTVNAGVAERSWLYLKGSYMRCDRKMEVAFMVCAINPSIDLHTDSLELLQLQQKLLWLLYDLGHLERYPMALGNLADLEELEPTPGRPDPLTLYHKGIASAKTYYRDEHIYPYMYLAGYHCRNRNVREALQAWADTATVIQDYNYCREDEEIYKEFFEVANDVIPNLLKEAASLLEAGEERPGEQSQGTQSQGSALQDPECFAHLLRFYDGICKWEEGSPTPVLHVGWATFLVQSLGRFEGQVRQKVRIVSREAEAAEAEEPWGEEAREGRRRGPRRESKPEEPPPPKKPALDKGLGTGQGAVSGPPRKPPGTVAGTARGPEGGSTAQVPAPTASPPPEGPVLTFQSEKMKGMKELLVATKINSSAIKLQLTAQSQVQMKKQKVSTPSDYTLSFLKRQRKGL
Structure (SMILES),Potency,"FP activity change, negative = inhibition"
COc1cc(/C=N/Nc2nncc3ccccc23)cc(OC)c1OC,"inconclusive: 11.2 µM [quencher, side channel, partial curve]",
COc1ccc(CNC(=O)CN2CCN(c3cccc(C)c3C)CC2)cc1,"inconclusive: 25.1 µM [inhibitor, partial curve]",
O=C(Nc1ccc2nccnc2c1)Nc1ccccc1Cl,"inconclusive: 1.41 µM [inhibitor, partial curve]",
CCN(CC)C(=S)SCC(=O)c1c(C)[nH]c2ccccc12,"inconclusive: 22.4 µM [quencher, side channel, partial curve]",
CN1/C(=C\C=N\NC(=O)c2ccccc2Br)C(C)(C)c2ccccc21,"inconclusive: 39.8 µM [fluorescent, side channel, single point]",
FC(F)Sc1ccc(NC(=S)NCC2CCCCC2)cc1,"inconclusive: 14.1 µM [quencher, side channel, partial curve]",
CCOc1ccc(C(N)=O)cc1OC,,inactive: -25.4%
CC1CCCCC1NC(=S)Nc1ccc(Cl)cc1Cl (stereo unspecified),"inconclusive: 15.8 µM [quencher, side channel, single point]",
O=C(CCl)N1CCN2C(=O)c3ccccc3C12c1ccc(Cl)cc1 (stereo unspecified),"inconclusive: 11.2 µM [fluorescent, side channel, partial curve]",
COc1ccc(/C=C2/C(=O)C(C)(C(C)C)CCC2C)cc1 (stereo unspecified),"inconclusive: 22.4 µM [fluorescent, side channel, single point]",
COc1cc2c(cc1OC)-c1nnc(-c3ccco3)n1C1(CCCC1)C2,,inactive: -12.5%
CC(C)n1cc(/C=N/Nc2ccc(C(=O)O)cc2)c2ccccc21,"inconclusive: 15.8 µM [quencher, side channel, partial curve]",
CC(=O)Nc1ccc(/C=C/c2nc(-c3ccccc3O)n[nH]2)cc1,"inconclusive: 2.82 µM [quencher, side channel, full curve]",
CCCCNC(=O)c1sc2nc(C)cc(COC)c2c1-n1cccc1,"inconclusive: 8.91 µM [fluorescent, side channel, partial curve]",
CCOc1ccc(CN2CCN(CCCc3ccccc3)CC2CCO)cc1 (stereo unspecified),"inconclusive: 14.1 µM [inhibitor, partial curve]",
COc1cccc(/C=C2/C(=O)NN(c3ccc(Br)cc3)C2=O)c1O,"inconclusive: 22.4 µM [quencher, side channel, single point]",
COc1ccc(-n2c(SCC(=O)NCC3CCCO3)nc3c([nH]c4ccccc43)c2=O)cc1 (stereo unspecified),"inconclusive: 39.8 µM [fluorescent, side channel, single point]",
COc1ccc(C2c3[nH]c4ccccc4c3C[C@H]3C(=O)N(C4CCN(Cc5ccccc5)CC4)CC(=O)N23)cc1OC (stereo partly specified),,inactive: -16.4%
COc1cccc(NC(=S)Nc2cc(C(=O)O)ccc2N2CC3CC(C2)c2cccc(=O)n2C3)c1 (stereo unspecified),"inconclusive: 5.62 µM [quencher, side channel, single point]",

Structure (SMILES),Potency,"FP activity change, negative = inhibition"
Cc1nc2cnc(N(C)C)nc2n(Cc2ccc(F)cc2)c1=O,"inconclusive: 35.5 µM [inhibitor, partial curve]",
CC1=NOC(=O)/C1=C/c1ccc(N(C)C)cc1,,inactive: 2.05%
C/C(=N\Nc1cc(N2CCCCC2)nc(C)n1)c1ccc(Br)cc1,"inconclusive: 3.55 µM [fluorescent, side channel, full curve]",
CC(C)n1c(SCC(=O)Nc2ccc(N3CCOCC3)cc2)nnc1-c1ccco1,"inconclusive: 6.31 µM [quencher, side channel, single point]",
O=C1OC(c2ccc(F)cc2)=C/C1=C\c1ccc(O)cc1,"inconclusive: 10 µM [quencher, side channel, partial curve]",
COc1cc(/C=C/C(=O)Nc2cccnc2)cc(OC)c1OC,"inconclusive: 25.1 µM [inhibitor, single point]",
CC(NC(=O)COc1ccccc1Cl)c1ccccc1 (stereo unspecified),"inconclusive: 11.2 µM [fluorescent, side channel, partial curve]",
CCn1c(CSc2nccn2C)nc2cc(C(=O)O)ccc21,"inconclusive: 35.5 µM [fluorescent, side channel, partial curve]",
COCCCn1c(-c2ccc(OC)cc2)nc2c1c(=O)[nH]c(=O)n2Cc1ccccc1,"inconclusive: 0.316 µM [inhibitor, full curve, poor fit]",
COC(=O)c1ccc(C(=O)OC)c(NC(=O)CSCc2ccc(Cl)cc2)c1,"inconclusive: 7.94 µM [inhibitor, full curve, poor fit]",
CCc1ccc(-n2c(C)nc3cc(C(=O)NCc4cccnc4)ccc32)cc1,"inconclusive: 15.8 µM [fluorescent, side channel, partial curve]",
Cc1cc(C)c(NS(=O)(=O)c2ccc(NC(=O)c3cccs3)cc2)c(C)c1,"inconclusive: 22.4 µM [quencher, side channel, partial curve]",
Nc1nn2c(-c3ccccc3)cc(=O)[nH]c2c1N=Nc1ccc(O)cc1,"inconclusive: 10 µM [quencher, side channel, partial curve]",
Cc1cc(C)c2nc(N(CCN(C)C)C(=O)c3ccc(S(=O)(=O)N(C)CC4CCCO4)cc3)sc2c1 (stereo unspecified),"inconclusive: 12.6 µM [fluorescent, side channel, partial curve]",
O=C(Nc1nnc(SCc2cccc3ccccc23)s1)C1COc2ccccc2O1 (stereo unspecified),"inconclusive: 31.6 µM [inhibitor, single point]",
COc1ccccc1N1CCN(C(=O)CSc2nc3ccccc3c(=O)n2CC2CCCO2)CC1 (stereo unspecified),"inconclusive: 5.01 µM [inhibitor, full curve, poor fit]",
O=C(Nc1nnc(CCS(=O)(=O)c2ccc3ccccc3c2)s1)c1ccc([N+](=O)[O-])cc1,"inconclusive: 3.98 µM [quencher, side channel, full curve]",
CCC(C)C(N)C(=O)NC(CC(N)=O)C(=O)NC(CC(C)C)C(=O)NC(CCCCN)C(=O)NC(C)C(=O)NC(CC(C)C)C(=O)NC(C)C(=O)NC(C)C(=O)NC(CC(C)C)C(=O)NC(C)C(=O)NC(CCCCN)C(=O)NC(CCCCN)C(=O)NC(C(=O)NC(CC(C)C)C(N)=O)C(C)CC (stereo unspecified),,inactive: -0.38%
CCCCCCCCCCCCCCCC[N+](C)(C)Cc1ccccc1,"inconclusive: 39.8 µM [inhibitor, partial curve]",

Structure (SMILES),Potency,"FP activity change, negative = inhibition"
O=C(O)CCN1C(=O)c2ccc(NC(=O)CCc3ccccc3)cc2C1=O,,inactive: -12.8%
COC(=O)CSc1nc2ccc(NC(=O)CSc3nnnn3Cc3ccccc3)cc2s1,"inconclusive: 15.8 µM [quencher, side channel, partial curve]",
CCCCN1C(=O)C(O)(c2ccccc2)c2cc(Br)ccc21 (stereo unspecified),"inconclusive: 11.2 µM [fluorescent, side channel, partial curve]",
Cc1cccc(-n2c(N)c(-c3nc4ccccc4n3C)c3nc4ccccc4nc32)c1,"inconclusive: 14.1 µM [quencher, side channel, partial curve]",
COc1ccc(C(=O)/C=C/c2ccc(O)cc2)c(O)c1CC=C(C)C,"inconclusive: 11.2 µM [quencher, side channel, partial curve]",
CC1CC(=O)N(CC(=O)Nc2ccc(Br)cc2)c2ccccc2S1(=O)=O (stereo unspecified),"inconclusive: 39.8 µM [quencher, side channel, single point]",
Cc1ccc(NC(=O)c2cc(-c3ccc(C)c(C)c3O)n[nH]2)cc1C,"inconclusive: 28.2 µM [inhibitor, single point]",
CCOc1ccc(NC(=O)CN2C(=O)NC(CCSC)C2=O)cc1 (stereo unspecified),,inactive: 7.41%
CC(C)(C)c1ccc(C(=O)N2CCN(CCNC(=O)C(=O)Nc3ccc(F)cc3)CC2)cc1,"inconclusive: 22.4 µM [fluorescent, side channel, single point]",
Cc1cc(C)c2nc(SCC(=O)Nc3cc(C)on3)c(C#N)cc2c1,"inconclusive: 12.6 µM [fluorescent, side channel, single point]",
CCCCOc1ccc(C(O)(CCN2CCOCC2)c2ccccc2)cc1 (stereo unspecified),"inconclusive: 5.62 µM [fluorescent, side channel, partial curve]",
O=c1[nH]c(/C=C/c2ccc([N+](=O)[O-])cc2)c([N+](=O)[O-])c(=O)[nH]1,"inconclusive: 31.6 µM [quencher, side channel, single point]",
O=C(O)CCS(=O)(=O)Cc1ccccc1F,"inconclusive: 3.16 µM [inhibitor, partial curve]",
C[C@]1(OC(=O)/C=C\c2ccccc2)C[C@@H](O)[C@@]2(O)C=CO[C@@H](O[C@H]3O[C@@H](CO)[C@@H](O)[C@@H](O)[C@@H]3O)[C@H]21,,inactive: -21.8% [at 24.8 µM]
CCc1nnc(NC(=O)c2ccc(S(=O)(=O)N3CCCCCC3)cc2)s1,"inconclusive: 11.2 µM [inhibitor, partial curve]",
CCCCOc1ccc(/C=C/C(=O)OCC(=O)N2CC(=O)Nc3ccccc32)cc1OCC,"inconclusive: 35.5 µM [fluorescent, side channel, partial curve]",
COCCNC(=O)c1c[nH]c2ccc(S(=O)(=O)N3CCC4(CC3)OCCO4)cc2c1=O,,inactive: 7.53%
Cc1nn(C)cc1CNC(=O)Nc1ccc(Cl)c(Cl)c1,"inconclusive: 39.8 µM [quencher, side channel, single point]",
